The values below come from PubChem BioAssay AID1645887 (National Center for Advancing Translational Sciences (NCATS), 2021).

Where “and” joins values, the source holds several entries; their conditions need not be identical. Identical values can stand only once. About 40 (0.2%) of roughly 16,000 compounds were called active. About 1% were inconclusive and are not listed. Calls follow the shape of the dose curve; as a rule, active = well fitted activation curve with a large enough effect; inconclusive = small, poorly fitted or top-dose-only effect, or another doubt; inactive = no such curve, though single readings can be large or run the other way. This is one part of the list.
% is scaled to controls: 0 for no effect and ±100 for the full control effect.

In the assay the target is Rap guanine nucleotide exchange factor 4 (Homo sapiens) (UniProt Q8WZA2). Nature of the assay: Validation qHTS for agonist of cAMP-regulated guanine nucleotide exchange factor 4 (EPAC2).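 Also: exchange makes BODIPY-GDP fluorescence drop when released from Rap1B; series mostly up to about 150 µM.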 The following applies: EPAC2 Rap1B BODIPY-GDP exchange, fluorescence; activation: hits give high values. In a few lines: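 Fluorescent exchange assay: 100 nM EPAC2 with 250 nM RAP1B-BODIPY-GDP and 50 uM GDP; compound added, 5 min at room temperature, then read (ex 480/em 540 nm) every 5 min for 30 min. Normalized to 6.5 mM cAMP agonist control.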
UniProt Q8WZA2, sequence (Q8WZA2 whole entry, looked up): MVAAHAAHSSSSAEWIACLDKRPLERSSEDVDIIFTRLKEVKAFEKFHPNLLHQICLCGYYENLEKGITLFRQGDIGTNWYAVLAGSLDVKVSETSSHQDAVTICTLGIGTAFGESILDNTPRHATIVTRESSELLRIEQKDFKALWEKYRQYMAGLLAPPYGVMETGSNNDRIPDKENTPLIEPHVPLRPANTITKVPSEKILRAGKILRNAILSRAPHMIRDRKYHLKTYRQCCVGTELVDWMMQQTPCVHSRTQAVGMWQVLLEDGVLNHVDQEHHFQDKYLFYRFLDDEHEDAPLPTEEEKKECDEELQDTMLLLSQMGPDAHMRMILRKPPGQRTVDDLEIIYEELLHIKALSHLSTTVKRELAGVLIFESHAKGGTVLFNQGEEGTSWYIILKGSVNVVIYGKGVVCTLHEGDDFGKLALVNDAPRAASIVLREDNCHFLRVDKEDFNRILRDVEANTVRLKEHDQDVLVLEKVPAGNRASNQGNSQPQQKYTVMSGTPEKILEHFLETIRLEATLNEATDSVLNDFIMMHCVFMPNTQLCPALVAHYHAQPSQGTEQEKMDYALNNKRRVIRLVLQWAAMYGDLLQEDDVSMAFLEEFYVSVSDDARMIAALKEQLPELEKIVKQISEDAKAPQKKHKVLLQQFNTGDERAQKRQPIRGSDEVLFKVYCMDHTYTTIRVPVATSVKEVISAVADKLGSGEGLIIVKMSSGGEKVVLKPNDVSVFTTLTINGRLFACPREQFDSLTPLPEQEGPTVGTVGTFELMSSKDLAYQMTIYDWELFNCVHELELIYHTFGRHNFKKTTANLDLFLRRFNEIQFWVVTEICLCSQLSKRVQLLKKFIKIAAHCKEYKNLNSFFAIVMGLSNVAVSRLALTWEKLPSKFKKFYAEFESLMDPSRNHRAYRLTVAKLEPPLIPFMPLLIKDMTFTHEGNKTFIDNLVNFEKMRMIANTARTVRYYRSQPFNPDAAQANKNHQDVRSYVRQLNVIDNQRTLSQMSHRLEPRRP
(In qHTS, concentration-response curves come from the screen itself.)
With `CN1CCN(CCc2ccc(Cl)c(Cl)c2)CC1`, the activation is inactive: -4.32%.
With `COc1cccc(CCNc2ncnc3sc(C(=O)N4CCN(C)CC4)c(C)c23)c1` the figure was inactive: -21.9%.
As to `CCC1C(=O)NCCN1Cc1ccc2c(c1)CN(Cc1ccc3c(c1)OCCO3)CCO2` (stereo not given), the activation is inactive: -13.9%.
Then `CO[C@H]1[C@H](NC(=O)c2ccco2)c2ccccc2C12CCN(Cc1cnn(-c3ccccc3)c1)CC2`, with inactive: -10.6%; and `CC(=O)OC/C=C(\C)CC/C=C(\C)CC/C=C(\C)CC/C=C(\C)CC/C=C(\C)CC/C=C(\C)CC/C=C(\C)CC/C=C(\C)CCC=C(C)C`, with inactive: -1.03%.
Then `CN1CCN(c2ncc3nc(-c4cn(C)c5ccccc45)c(=O)n(-c4ccccc4)c3n2)CC1`, with inactive: -9.69%; and `Cc1ccsc1C(=O)N(Cc1cc2cc3c(cc2nc1N1CCOCC1)CCC3)CC1CCCO1` (stereo not given), with inactive: -10.5%.
For the compound `COC(=O)C1CCN(Cc2ccc3c(c2)CN(C(=O)c2cc(C)on2)CCO3)CC1`, the activation was inactive: -3.7%.
Then `Cc1cccc(CNc2cc(-c3ccccc3Cl)ncn2)c1`, with inactive: 1.1%; and `NCCCCCC(=O)O`, with inactive: 11.6% and inactive: -11.8% and inactive: -19.7%; and `CN(C)c1ccc(/C=C/c2cc(Cl)nc3ccccc23)cc1`, with inactive: -20.3%.
With `O=C1C[C@H]2C=CCc3cccc(c32)CN1Cc1cccc(F)c1` the figure was inactive: -31.7%; with `CCc1ccc(S(=O)(=O)NCc2nc(N3CCCC3)c3cccc(C)c3n2)cc1`, inactive: -1.03%.
With `C=CC(C)(C)c1c2c(c(O)c3c(=O)c4ccc(O)c(O)c4oc13)C=CC(C)(C)O2` the figure was inactive: -70.7%.
`Cc1cc(C)n(-c2cccc(C(=O)NCC3Cc4cccc(-c5cccnc5)c4O3)c2)n1` (stereo not given): the activation is inactive: 2.23%.
Then `CC(C)CN1CC2(CCN(C(=O)c3ccco3)CC2)C1`, with inactive: 3.03%; and `CNCCc1ccccn1`, with inactive: -10.8% and inactive: -19.2%.
Turning to `C[C@@H]1CN(Cc2ccc3c(c2)CN(Cc2cccc(O)c2)CCO3)C[C@H](C)O1`, the activation was inactive: -13.4%.
With `COc1ccc(Oc2ncc3ncc(=O)n(CCc4ccccc4)c3n2)cc1`, the activation was inactive: -5.59%.
With `Cc1cccc2nc(CNC(=O)CN3Cc4ccccc4OC(c4ccccc4F)C3)cn12` (stereo not given) the figure was inactive: -19.4%; with `Cc1noc(C)c1C(=O)N1CCC2(CCN(Cc3ccncc3)CC2)CC1`, inactive: -1.44%.
Then `CC1=C(C)C(=O)C(C(CCCCCC(=O)O)c2ccccc2)=C(C)C1=O` (stereo not given), with inactive: -13.1%; and `Cn1cc(-c2nc3cnc(N4CCNCC4)nc3n(C3CC3)c2=O)c2ccccc21`, with inactive: -16.5%; and `CC(=O)N1CCC2(CCN(Cc3ccncc3)CC2)CC1`, with inactive: -8.39%.
Then `O=C1C[C@H]2C=CCc3cccc(c32)CN1Cc1ccc(Cl)cc1`, with inactive: -6.37%; and `C[C@@H](C1[C@@H](O)CC2C3C=CC4C[C@@H](O)CC[C@]4(C)[C@H]3CC[C@@]21C)[C@@H]1CCCCN1` (stereo not given in full), with inactive: -6.44%; and `COC(=O)C1CCN(c2nc(CN(C)C3CCOC3)nc3cc(OC)c(OC)cc23)CC1` (stereo not given), with inactive: -3.51%.
Consider `N#C/C(=C\c1ccc(O)c(O)c1)C(=O)NCCCCc1ccccc1`, for which the activation is inactive: -20.5%.
With `Cc1cnc(-n2ncc(C(=O)NCc3ccncc3)c2C2CC2)nc1-c1cccs1` the figure was inactive: -1.24%.
Then `CCCCCCCCCCCCCCCC(=O)OC[C@H](O)[C@H]1OC(=O)C(O)=C1O`, with inactive: -18.7%.
With `CC1(C)C(=O)C=C[C@@]2(C)C1C=C[C@@]1(C)C2CC[C@@]2(C)C(c3ccoc3)OC(=O)C3OC312` (stereo not given in full) the figure was inactive: -9.61%.
In the case of `COC(=O)[C@@H]1CCCN1C(=O)c1cc(NC(=O)C2CCC2)c2c(c1)nc(-c1ccncc1)n2C`, the activation was inactive: -5.92%.
Then `COCCn1c(=O)c(-c2cccs2)nc2cnc(N(C)C)nc21`, with inactive: 27.3%; and `CC12C(=O)OC(=O)C1(C)C1CCC2O1` (stereo not given), with inactive: 1.27% and inactive: -5.98% and inactive: 7.78%.
With `CC(C)c1cccc(O)c(=O)c1` the figure was inactive: -1.79% and inactive: -12.9%.
With `Nc1nc2c(ncn2COC(CO)CO)c(=O)[nH]1` the figure was inactive: -25.7% and inactive: -11.1%.
For `COCCn1c(=O)cnc2cnc(Nc3cccc(OC)c3)nc21`, the activation was inactive: -13.4%.
With `COc1ccc(-c2cnc(-c3cccnc3)o2)cc1` the figure was inactive: -23%; with `CC1(C)Oc2ccc3ccc(=O)oc3c2CC1=O`, inactive: -25.4%; with `CCNc1ncc2nc(-c3ccc(F)cc3)c(=O)n(-c3ccccc3)c2n1`, inactive: -1.12%.
Regarding `O=C(O)CCCCCCCCc1cn(Cc2ccc(C(=O)c3ccccc3)cc2)nn1`, the activation was inactive: -9.58%.
Then `CO[C@H]1C=CO[C@@]2(C)Oc3c(C)c(O)c4c(O)c(c(/C=N/N5CCN(C)CC5)c(O)c4c3C2=O)NC(=O)/C(C)=C\C=C[C@H](C)[C@H](O)[C@@H](C)[C@@H](O)[C@@H](C)[C@H](OC(C)=O)[C@@H]1C`, with inactive: -42.4%; and `CSc1nnc(CNS(=O)(=O)c2ccc(F)cc2F)n1-c1ccccc1C`, with inactive: -2.89%.
In the case of `C[C@H](C(=O)O)c1cccc(C(=O)c2ccccc2)c1`, the activation is inactive: 4.65%.
With `CS(=O)(=O)Nc1c(O)ccc2c1CCC[C@H]2C1=NCCN1` the figure was inactive: -8.26%; with `COC(=O)N1CCC2(CC1)CN(c1ccccn1)C2`, inactive: -16.5%.
Then `NC1(C(=O)O)CC1`, with inactive: -23.4% and inactive: -13.6%; and `COc1ccc(-c2cc(=O)c3c(O)c(OC)c(OC)c(OC)c3o2)cc1`, with inactive: -11.7%.
With `Fc1ccc(Nc2ccnc(-c3ccc4c(c3)OCO4)n2)cc1` the figure was inactive: -18.9%; with `O=C1CCN(CCc2ccccc2)CCN1[C@H](COc1ccccc1)Cc1ccccc1`, inactive: -19.6%; with `Oc1cc2c(cc1O)C1c3ccc(O)c(O)c3OCC1(O)C2` (stereo not given), inactive: -18.1%.
For the compound `O=C(C[n+]1ccncc1)c1ccc(Br)cc1`, the activation was inactive: -19.2%.
`Cc1noc(NS(=O)(=O)c2cccc3c(N(C)C)cccc23)c1C`: the activation is inactive: -7.5%.
With `Cc1c(C(=O)NCc2nccs2)cnn1-c1ncc2c(n1)-c1ccccc1CC2` the figure was inactive: 3.06%.
Then `CCN(CC)c1ccc(/C=C/c2ccccn2)cc1`, with inactive: 6.18%; and `COC(=O)N1CCC2(CCN(Cc3nccs3)CC2)CC1`, with inactive: -22.7%.
With `Cc1ccccc1-c1ccc2ncnc(N(C)C)c2c1` the figure was inactive: -14%; with `COC(=O)N1CCC2(CCN(C(=O)NC(C)C)CC2)CC1`, inactive: 5.87%; with `CCCCC(C)(O)C/C=C/[C@H]1[C@H](O)CC(=O)[C@@H]1CCCCCCC(=O)O` (stereo not given in full), inactive: 10.1%.
For `CCN(CC)C(=O)c1ccc(O)c(OC)c1`, the activation is inactive: 3.98% and inactive: -4.84% and inactive: -28.6%.
With `COc1cccc(Nc2ncc3ncc(=O)n(CCC#N)c3n2)c1` the figure was inactive: -0.378%; with `CNc1nc(-c2ccc(C(=O)N(C)C)cc2)nc2ccccc12`, inactive: -6.78%.
With `CC(=O)[C@@]1(O)CC[C@H]2[C@@H]3CCC4=CC(=O)CC[C@]4(C)[C@H]3CC[C@@]21C`, the activation is inactive: -5.73% and inactive: -12.3%.
Then `COc1cccc(-c2ccnc(-n3ncc(C(=O)NCc4cccnc4)c3C3CC3)n2)c1`, with inactive: -8.44%.
Then `CC(NC(=O)c1cc(F)ccc1F)c1nnc2n1CCN(Cc1ccccc1O)CC2` (stereo not given), with inactive: 0.318%.
`COCc1c(C(=O)NC2CCCCC2)cnn1-c1nccc(-c2ccccc2OC)n1`: the activation was inactive: -11.4%.
Then `N#Cc1cccc(NC(=O)N2CCCC3(CCN(S(=O)(=O)c4ccccc4)CC3)C2)c1`, with inactive: 1.25%; and `Cc1noc(C)c1-c1ccc2ncnc(NCc3cccs3)c2c1`, with inactive: -22.2%.
Then `CC(C)CC(N)C(=O)NC(C)C(=O)O` (stereo not given), with inactive: -9.34%; and `COC(=O)N1CCC2(CC1)CN(C(=O)Nc1cccc(F)c1)C2`, with inactive: 5.39%; and `COc1cc([C@@H]2c3cc4c(cc3C(OC3OC5COC(C)OC5C(O)C3O)C3COC(=O)[C@@H]32)OCO4)cc(OC)c1O` (stereo not given in full), with inactive: 4%.
Then `CCN(CC)CCOC[C@H]1O[C@@H](O)[C@H](OCCN(CC)CC)[C@@H](O)[C@@H]1O`, with inactive: -1.9%.
On to `NCC1O[C@@H](OC2C(N)C[C@H](N)[C@@H](O[C@H]3OC(CO)C(O)C(N)C3O)C2O)C(O)C(O)C1O` (stereo not given in full), for which the activation is inactive: -5.12%.
With `COc1ccc(-c2nc3cc(F)ccc3cc2CN(C(=O)c2ccc3c(c2)OCO3)C2CC2)cc1` the figure was inactive: -21.5%; with `COc1ccc(NC(=O)N2CC3(CCN(C(C)=O)CC3)C2)cc1`, inactive: -5.2%.
In the case of `CCCCCCCCCCOc1cc2c(=O)c(C(=O)OCC)c[nH]c2cc1OCC`, the activation was inactive: 11.6%.
With `CN(C)CC(C)(O)c1ccc2c(c1)CN(Cc1cccn1-c1cccnc1)CCO2` (stereo not given) the figure was inactive: -4.09%; with `COc1ccc(CN2CCOc3ccc(CN4CCC(Oc5cccnc5)CC4)cc3C2)cc1C`, inactive: -9.72%.
Then `CCN(CC)C(=S)S`, with inactive: 9.79%; and `Cn1cc(CN2CCC(C3(c4ccccn4)NC(=O)N(CC4CCCO4)C3=O)CC2)c2ccccc21` (stereo not given), with inactive: 4.94%; and `CCOC(=O)C[C@H]1c2cc(F)ccc2S(=O)(=O)N1Cc1ccc(OC)cc1`, with inactive: -26.4%.
With `COc1ccccc1CNc1ncnc2sc(C(=O)N3CCN(C)CC3)c(C)c12` the figure was inactive: -5.84%; with `COCCNc1nc(-c2cccc(NS(C)(=O)=O)c2)nc2ccccc12`, inactive: -4.99%; with `COc1ccc2cnoc(=O)c2c1OC`, inactive: -6.06%.
With `O=C1CC[C@H](O)CCN1[C@H](CSc1ccc(Br)cc1)Cc1ccccc1`, the activation is inactive: -22.1%.
